# Toxic doses and inconclusive results are not listed. Certain results were filed several times, with different values. The list is limited to them. The source may hold further records. Results that share an entry differ, and nothing given here explains why; they may come from other doses, times, organisms or constructs than stated.
# Tested on: L1210 leukemia ip in BDF1 mice, survival T/C
# Assay: NCI In Vivo Anticancer Drug Screen. Data for tumor model L1210 Leukemia (intraperitoneal) in B6D2F1 (BDF1) mice
# Conditions: endpoint: mean survival time, higher = longer survival
structure (smiles),measurement,setting,value
O=C(CCBr)N1CCN(C(=O)CCBr)CC1,T/C,"dose: 200.0 mg/kg/injection, schedule: Q01DX001 (ip), vehicle: saline","121 % of control, 122 % of control, 165 % of control"
Cc1c2ccncc2cc2c3ccccc3n(CC3CO3)c12 (stereo not drawn),T/C,"dose: 300.0 mg/kg/injection, schedule: Q04DX003 (ip), vehicle: Klucel (hydroxypropylcellulose) (HPC)",112 % of control and 152 % of control
COC12C(COC(N)=O)C3=C(C(=O)C(C)=C(N)C3=O)N1CC1C2N1C (stereo not drawn),T/C,"dose: 32.5 mg/kg/injection, schedule: Q01DX001 (ip), vehicle: saline",122 % of control and 168 % of control

# — PubChem BioAssay AID248 (DTP/NCI, 2004)
